# This is one part of the list.
# Key:
# Test in all cases: glycan array binding signal (z-score within array); higher = stronger binding
# Conditions in all cases: glycan notation: IUPAC condensed, linker removed
# [1] = target: Gal(b1-4)GlcNAc(b1-2)[Gal(b1-4)GlcNAc(b1-6)]Man(a1-6)[GlcNAc(b1-4)][Gal(b1-4)GlcNAc(b1-2)Man(a1-3)]Man(b1-4)GlcNAc(b1-4)GlcNAc
# Procedure, shortened: (§1)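 Negative Z-scores can be read as non-binding. The Z-score is calculated within each array and then averaged across arrays of one protein sequence at different concentrations or buffers and across linkers. Arrays, 3228 in all, were curated from the Consortium for Functional Glycomics database and kept only where the protein sequence was available.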
# [2] = target: Gal(b1-4)GlcNAc(b1-2)[Gal(b1-4)GlcNAc(b1-6)]Man(a1-6)[GlcNAc(b1-4)][Gal(b1-4)GlcNAc(b1-2)[Gal(b1-4)GlcNAc(b1-4)]Man(a1-3)]Man(b1-4)GlcNAc(b1-4)[Fuc(a1-6)]GlcNAc
# Procedure, shortened: as §1
# [3] = target: Gal(b1-4)GlcNAc(b1-3)Gal(b1-3)GalNAc
# Procedure, shortened: as §1
# [4] = target: Gal(b1-4)GlcNAc(b1-3)Gal(b1-3)GlcNAc
# Procedure, shortened: as §1
# [5] = target: Gal(b1-4)GlcNAc(b1-3)Gal(b1-4)Glc
# Procedure, shortened: as §1
# [6] = target: Gal(b1-4)GlcNAc(b1-3)Gal(b1-4)GlcNAc
# Procedure, shortened: as §1
# [7] = target: Gal(b1-4)GlcNAc(b1-3)Gal(b1-4)GlcNAc(b1-2)Man(a1-3)[Gal(b1-4)GlcNAc(b1-3)Gal(b1-4)GlcNAc(b1-2)Man(a1-6)]Man(b1-4)GlcNAc(b1-4)GlcNAc
# Procedure, shortened: as §1
# [8] = target: Gal(b1-4)GlcNAc(b1-3)Gal(b1-4)GlcNAc(b1-2)Man(a1-3)[Gal(b1-4)GlcNAc(b1-3)Gal(b1-4)GlcNAc(b1-2)Man(a1-6)]Man(b1-4)GlcNAc(b1-4)[Fuc(a1-6)]GlcNAc
# Procedure, shortened: as §1
# [9] = target: Gal(b1-4)GlcNAc(b1-3)Gal(b1-4)GlcNAc(b1-2)[Gal(b1-4)GlcNAc(b1-3)Gal(b1-4)GlcNAc(b1-6)]Man(a1-6)[Gal(b1-4)GlcNAc(b1-3)Gal(b1-4)GlcNAc(b1-2)Man(a1-3)]Man(b1-4)GlcNAc(b1-4)GlcNAc
# Procedure, shortened: as §1
# [10] = target: Gal(b1-4)GlcNAc(b1-3)Gal(b1-4)GlcNAc(b1-2)[Gal(b1-4)GlcNAc(b1-3)Gal(b1-4)GlcNAc(b1-6)]Man(a1-6)[Gal(b1-4)GlcNAc(b1-3)Gal(b1-4)GlcNAc(b1-2)Man(a1-3)]Man(b1-4)GlcNAc(b1-4)[Fuc(a1-6)]GlcNAc
# Procedure, shortened: as §1
# [11] = target: Gal(b1-4)GlcNAc(b1-3)Gal(b1-4)GlcNAc(b1-3)Gal(b1-4)GlcNAc
# Procedure, shortened: as §1
# [12] = target: Gal(b1-4)GlcNAc(b1-3)Gal(b1-4)GlcNAc(b1-3)Gal(b1-4)GlcNAc(b1-2)Man(a1-3)[Gal(b1-4)GlcNAc(b1-3)Gal(b1-4)GlcNAc(b1-3)Gal(b1-4)GlcNAc(b1-2)Man(a1-6)]Man(b1-4)GlcNAc(b1-4)GlcNAc
# Procedure, shortened: as §1
# [13] = target: Gal(b1-4)GlcNAc(b1-3)Gal(b1-4)GlcNAc(b1-3)Gal(b1-4)GlcNAc(b1-2)Man(a1-3)[Gal(b1-4)GlcNAc(b1-3)Gal(b1-4)GlcNAc(b1-3)Gal(b1-4)GlcNAc(b1-2)Man(a1-6)]Man(b1-4)GlcNAc(b1-4)[Fuc(a1-6)]GlcNAc
# Procedure, shortened: as §1
# [14] = target: Gal(b1-4)GlcNAc(b1-3)Gal(b1-4)GlcNAc(b1-3)Gal(b1-4)GlcNAc(b1-2)[Gal(b1-4)GlcNAc(b1-3)Gal(b1-4)GlcNAc(b1-3)Gal(b1-4)GlcNAc(b1-6)]Man(a1-6)[Gal(b1-4)GlcNAc(b1-3)Gal(b1-4)GlcNAc(b1-3)Gal(b1-4)GlcNAc(b1-2)Man(a1-3)]Man(b1-4)GlcNAc(b1-4)[Fuc(a1-6)]GlcNAc
# Procedure, shortened: as §1
# [15] = target: Gal(b1-4)GlcNAc(b1-3)Gal(b1-4)GlcNAc(b1-3)Gal(b1-4)GlcNAc(b1-3)Gal(b1-4)GlcNAc(b1-2)Man(a1-3)[Gal(b1-4)GlcNAc(b1-3)Gal(b1-4)GlcNAc(b1-3)Gal(b1-4)GlcNAc(b1-3)Gal(b1-4)GlcNAc(b1-2)Man(a1-6)]Man(b1-4)GlcNAc(b1-4)GlcNAc
# Procedure, shortened: as §1
# [16] = target: Gal(b1-4)GlcNAc(b1-3)Gal(b1-4)GlcNAc(b1-3)Gal(b1-4)GlcNAc(b1-3)Gal(b1-4)GlcNAc(b1-2)Man(a1-3)[Gal(b1-4)GlcNAc(b1-3)Gal(b1-4)GlcNAc(b1-3)Gal(b1-4)GlcNAc(b1-3)Gal(b1-4)GlcNAc(b1-2)Man(a1-6)]Man(b1-4)GlcNAc(b1-4)[Fuc(a1-6)]GlcNAc
# Procedure, shortened: as §1
# [17] = target: Gal(b1-4)GlcNAc(b1-3)Gal(b1-4)GlcNAc(b1-3)Gal(b1-4)GlcNAc(b1-3)Gal(b1-4)GlcNAc(b1-2)[Gal(b1-4)GlcNAc(b1-3)Gal(b1-4)GlcNAc(b1-3)Gal(b1-4)GlcNAc(b1-3)Gal(b1-4)GlcNAc(b1-6)]Man(a1-6)[Gal(b1-4)GlcNAc(b1-3)Gal(b1-4)GlcNAc(b1-3)Gal(b1-4)GlcNAc(b1-3)Gal(b1-4)GlcNAc(b1-2)Man(a1-3)]Man(b1-4)GlcNAc(b1-4)[Fuc(a1-6)]GlcNAc
# Procedure, shortened: as §1
# [18] = target: Gal(b1-4)GlcNAc(b1-3)Gal(b1-4)GlcNAc(b1-3)Gal(b1-4)GlcNAc(b1-3)Gal(b1-4)GlcNAc(b1-3)Gal(b1-4)GlcNAc(b1-2)Man(a1-3)[Gal(b1-4)GlcNAc(b1-3)Gal(b1-4)GlcNAc(b1-3)Gal(b1-4)GlcNAc(b1-3)Gal(b1-4)GlcNAc(b1-3)Gal(b1-4)GlcNAc(b1-2)Man(a1-6)]Man(b1-4)GlcNAc(b1-4)GlcNAc
# Procedure, shortened: as §1
# [19] = target: Gal(b1-4)GlcNAc(b1-3)Gal(b1-4)GlcNAc(b1-3)Gal(b1-4)GlcNAc(b1-3)Gal(b1-4)GlcNAc(b1-3)Gal(b1-4)GlcNAc(b1-2)Man(a1-3)[Gal(b1-4)GlcNAc(b1-3)Gal(b1-4)GlcNAc(b1-3)Gal(b1-4)GlcNAc(b1-3)Gal(b1-4)GlcNAc(b1-3)Gal(b1-4)GlcNAc(b1-2)Man(a1-6)]Man(b1-4)GlcNAc(b1-4)[Fuc(a1-6)]GlcNAc
# Procedure, shortened: as §1
# [20] = target: Gal(b1-4)GlcNAc(b1-3)Gal(b1-4)GlcNAc(b1-3)Gal(b1-4)GlcNAc(b1-3)Gal(b1-4)GlcNAc(b1-3)Gal(b1-4)GlcNAc(b1-2)[Gal(b1-4)GlcNAc(b1-3)Gal(b1-4)GlcNAc(b1-3)Gal(b1-4)GlcNAc(b1-3)Gal(b1-4)GlcNAc(b1-3)Gal(b1-4)GlcNAc(b1-6)]Man(a1-6)[Gal(b1-4)GlcNAc(b1-3)Gal(b1-4)GlcNAc(b1-3)Gal(b1-4)GlcNAc(b1-3)Gal(b1-4)GlcNAc(b1-3)Gal(b1-4)GlcNAc(b1-2)Man(a1-3)]Man(b1-4)GlcNAc(b1-4)[Fuc(a1-6)]GlcNAc
# Procedure, shortened: as §1
# [21] = target: Gal(b1-4)GlcNAc(b1-3)Gal(b1-4)GlcNAc(b1-3)Gal(b1-4)GlcNAc(b1-3)Gal(b1-4)GlcNAc(b1-3)Gal(b1-4)GlcNAc(b1-3)Gal(b1-4)GlcNAc(b1-2)Man(a1-3)[Gal(b1-4)GlcNAc(b1-3)Gal(b1-4)GlcNAc(b1-3)Gal(b1-4)GlcNAc(b1-3)Gal(b1-4)GlcNAc(b1-3)Gal(b1-4)GlcNAc(b1-3)Gal(b1-4)GlcNAc(b1-2)Man(a1-6)]Man(b1-4)GlcNAc(b1-4)GlcNAc
# Procedure, shortened: as §1
# [22] = target: Gal(b1-4)GlcNAc(b1-3)Gal(b1-4)GlcNAc(b1-3)GalNAc
# Procedure, shortened: as §1
# [23] = target: Gal(b1-4)GlcNAc(b1-3)Gal(b1-4)GlcNAc(b1-3)[Gal(b1-4)GlcNAc(b1-3)Gal(b1-4)GlcNAc(b1-6)]GalNAc
# Procedure, shortened: as §1
binder,measurement,setting,value
Pwp3 (Candida glabrata) (protein) MGSSHHHHHHSSGLVPRGSHMASKNPVDFTTVCQFPDNFSKKPGFLATTARLGLWITGNSYKELLNYPGTFTLTTQQASTTTPNIQLRGTDLFTTIYGLTVYPLYLLVELQGYFVPTQSGMYTFSLTGSDDAAIIFIGNPSTFPCDAFKTWPQATANDITVTDSINPSRTLYMVKGVAYPLRIAYYNGLGNGVLNAAFTDPSGTKRTDWNGYIWQYDQCSTCTYK,glycan array binding signal (z-score),[1],-0.058
same,glycan array binding signal (z-score),[2],-0.123
same,glycan array binding signal (z-score),[3],-0.558
same,glycan array binding signal (z-score),[4],2.55
same,glycan array binding signal (z-score),[5],-0.475
same,glycan array binding signal (z-score),[6],2.11
same,glycan array binding signal (z-score),[7],0.908
same,glycan array binding signal (z-score),[8],3.5
same,glycan array binding signal (z-score),[9],1.29
same,glycan array binding signal (z-score),[10],1.87
same,glycan array binding signal (z-score),[11],-1.53
same,glycan array binding signal (z-score),[12],2.01
same,glycan array binding signal (z-score),[13],2.05
same,glycan array binding signal (z-score),[14],0.753
same,glycan array binding signal (z-score),[15],0.693
same,glycan array binding signal (z-score),[16],1.11
same,glycan array binding signal (z-score),[17],-0.237
same,glycan array binding signal (z-score),[18],3.73
same,glycan array binding signal (z-score),[19],2.41
same,glycan array binding signal (z-score),[20],-0.344
same,glycan array binding signal (z-score),[21],2.87
same,glycan array binding signal (z-score),[22],-0.392
same,glycan array binding signal (z-score),[23],0.036

# Reference: the supplement of paper PMC8728848
